# Data reported in PubChem BioAssay AID588453 (National Center for Advancing Translational Sciences (NCATS), 2011).
# Where “and” joins values, the source holds several entries; their conditions need not be identical. Equal values may be shown once. In all, about 390,000 compounds went through this assay and about 4,000 (1%) were called active. This list was built around the results that the source calls inconclusive (neither active nor inactive); the mix of calls is not that of the screen. The call rests on the fitted dose curve; in most records, active means well fitted inhibition curve with a large enough effect; inconclusive means small, poorly fitted or top-dose-only effect; inactive means no such curve, though single readings can be large or run the other way. Potencies beside an inconclusive call are fits to weak or partial responses and may not hold up.
# Molecular target: Thioredoxin reductase 1, cytoplasmic (Rattus norvegicus) (UniProt O89049)
# Assay: qHTS Assay for Inhibitors of Mammalian Selenoprotein Thioredoxin Reductase 1 (TrxR1): qHTS; further: nearly all actives have a fitted effect of over 65% in size
# Conditions: recombinant rTrxR1, NADPH fluorescence consumption, selenite substrate; series mostly up to 114 µM
# In short: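 Rat TrxR1 (90 nM in the dispensed reagent) was pre-reduced with 400 uM NADPH for 5 min at room temperature, then incubated with compound for 15 min. After 400 uM selenite was added, NADPH fluorescence (Ex 340/Em 450 nm) was followed for 8 min.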
# Potency means the concentration at half of the fitted maximal effect; tags describe the fitted curve by direction and shape.
# UniProt O89049, sequence (O89049 whole entry, looked up): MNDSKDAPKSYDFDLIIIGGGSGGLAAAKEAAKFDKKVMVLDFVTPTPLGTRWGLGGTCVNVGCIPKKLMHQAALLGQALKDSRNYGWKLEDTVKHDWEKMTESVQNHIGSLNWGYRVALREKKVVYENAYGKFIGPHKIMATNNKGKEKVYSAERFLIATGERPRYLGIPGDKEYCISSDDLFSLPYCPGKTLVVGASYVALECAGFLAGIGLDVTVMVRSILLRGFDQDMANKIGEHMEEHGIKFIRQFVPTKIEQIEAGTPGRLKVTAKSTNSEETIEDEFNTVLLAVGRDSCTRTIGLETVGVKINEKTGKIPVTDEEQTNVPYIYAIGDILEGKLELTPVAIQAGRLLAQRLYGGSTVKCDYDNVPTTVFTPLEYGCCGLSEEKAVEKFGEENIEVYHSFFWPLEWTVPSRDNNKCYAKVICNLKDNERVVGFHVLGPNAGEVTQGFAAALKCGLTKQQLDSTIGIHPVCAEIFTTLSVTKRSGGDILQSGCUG
row,Structure (SMILES),Potency
1,Cc1ccc(OCC(=O)N2CCN(Cc3ccc([N+](=O)[O-])cc3)CC2)cc1,inactive
2,CC(=O)C(Sc1ncnc2c1nnn2-c1ccc(F)cc1)C(=O)N(C)C (stereo not given),"inconclusive: 44.7 µM [inhibitor, partial curve]"
3,Cc1ccccc1[N+](=O)[O-],inactive
4,CN(C)c1c([N+](=O)[O-])cc(N2C(=O)C=CC2=O)cc1[N+](=O)[O-],active: 2.82 µM
5,N#CC1c2ccccc2-n2nncc2CN1Cc1cc(Cl)cc(Cl)c1 (stereo not given),"inconclusive: 14.1 µM [inhibitor, full curve]"
6,C=C1C(=O)O[C@@H]2C[C@@H](C)[C@@H]3C=CC(=O)[C@@]3(C)[C@@H](O)[C@H]12,"inconclusive: 56.2 µM [inhibitor, partial curve, poor fit]"
7,Cc1nc2ccccc2c(=O)n1-c1cccc(C(F)(F)F)c1,inactive
8,NCC(O)c1cc(O)c(O)cc1F (stereo not given),"inconclusive: 8.44 µM [inhibitor, partial curve] and inconclusive: 100 µM [inhibitor, single point] and inconclusive: 9.47 µM [inhibitor, partial curve]"
9,O=C(O)CCCc1ccc(N(CCCl)CCCl)cc1,active: 11.2 µM and active: 50.1 µM
10,Cc1cc(C)cc(N2C(=O)NC(=O)/C(=C\c3cccn3-c3ccc(Cl)cc3)C2=O)c1,"inconclusive: 28.2 µM [inhibitor, single point]"
11,Cc1cccc(Cn2cccc(C(=O)Nc3cc(C)on3)c2=O)c1,inactive
12,CN1C(=O)C(=Cc2cccnc2)C(=O)N(C)C1=O,active: 22.4 µM
13,CCCC(=O)NC(Oc1ccc(C(C)=O)cc1)C(Cl)(Cl)Cl (stereo not given),active: 25.1 µM
14,NS(=O)(=O)c1nc[nH]c1[N+](=O)[O-],"inconclusive: 79.4 µM [inhibitor, single point]"
15,CC(=O)Nc1ccc(OC(=O)N2CCN(/[N+]([O-])=N/Oc3ccc([N+](=O)[O-])cc3[N+](=O)[O-])CC2)cc1,"inconclusive: 6.31 µM [inhibitor, full curve]"
16,COc1cc(Cn2c(N)c(C(=O)NCc3ccco3)c3nc4ccccc4nc32)cc(OC)c1OC,"inconclusive: 56.2 µM [inhibitor, partial curve, poor fit]"
17,COC(=O)NC(=C(Cl)Cl)P(=O)(c1ccccc1)c1ccccc1,"inconclusive: 70.8 µM [inhibitor, single point]"
18,Clc1ccc(CNCCc2ccc3c(c2)OCO3)cc1,"inconclusive: 44.7 µM [inhibitor, partial curve]"
19,CC(CCN1CC1)=NNC(=O)Nc1cccc2ccccc12,"inconclusive: 89.1 µM [inhibitor, single point]"
20,O=C1CC(=O)N(Cc2ccccc2)C(=O)N1CCCCCCN1C(=O)CC(=O)N(Cc2ccccc2)C1=O,active: 2.82 µM
21,O=C1NC(=O)C(=Cc2ccc(Sc3ccccc3)o2)C(=O)N1,"inconclusive: 17.8 µM [inhibitor, partial curve, poor fit]"
22,COC1=C(C)C(=O)c2c(c(COC(N)=O)c3n2C[C@@H]2[C@@H]3N2C)C1=O (stereo not given in full),"inconclusive: 35.5 µM [inhibitor, partial curve]"

row,Structure (SMILES),Potency
1,CCN1C(=O)/C(=C/c2ccc(N(CC)CC)cc2OC)C(=O)NC1=S,"inconclusive: 50.1 µM [inhibitor, partial curve]"
2,c1ccc2c(c1)CNCc1cnnn1-2,"inconclusive: 89.1 µM [inhibitor, partial curve, poor fit]"
3,CSc1ncc(/C=C2/C(=O)NC(=O)N(C3CCCCC3)C2=O)cn1,active: 11.2 µM
4,COc1cc(C=C(C#N)C#N)cc(O)c1O,"inconclusive: 39.8 µM [inhibitor, partial curve]"
5,CC(C)[C@@]1(NC(=O)[C@@H]2C[C@@H]3c4cccc5[nH]cc(c45)C[C@H]3N(C)C2)O[C@@]2(O)C3CCCN3C(=O)[C@H](Cc3ccccc3)N2C1=O (stereo not given in full),"inconclusive: 26.7 µM [inhibitor, partial curve]"
6,CCCCn1c(O)c(C(CC)=NCCN2CCCCC2)c(=O)[nH]c1=O,"inconclusive: 79.4 µM [inhibitor, single point]"
7,N#CC1=C(N)Oc2n[nH]c(-c3cccs3)c2C1c1ccsc1 (stereo not given),"inconclusive: 50.1 µM [inhibitor, partial curve]"
8,COc1ccccc1NC(=O)COC(=O)c1cc(C)n(C2CC2)c1C,inactive
9,OCCCc1ccc(O)c(O)c1,active: 79.4 µM
10,Cc1cc(C)cc(N2C(=O)NC(=O)/C(=C\c3cccn3-c3ccccc3)C2=O)c1,inactive
11,O=C(c1ccco1)N1CCN(C(=O)c2ccc(COc3ccc(Cl)cc3Cl)o2)CC1,active: 7.08 µM
12,CC(=O)c1ccc(NC2CC(O)C(O)CO2)cc1 (stereo not given),"inconclusive: 79.4 µM [inhibitor, single point]"
13,CCOCCSc1nc2c(c(-c3cccs3)c1C#N)CC/C2=C/c1cccs1,"inconclusive: 44.7 µM [inhibitor, partial curve]"
14,Cc1ccc(CS(=O)(=O)Cc2ccc(C(=O)N3CCC4(CC3)OCCO4)o2)cc1,"inconclusive: 14.1 µM [inhibitor, partial curve, poor fit]"
15,O=C1NC(=S)NC(=O)C1=Cc1cccc2cc3ccccc3cc12,"inconclusive: 3.16 µM [inhibitor, partial curve, poor fit]"
16,CCN(CC)c1ccc(/C=C2\C(=O)NC(=O)N(Cc3ccco3)C2=O)cc1,active: 28.2 µM
17,COc1ccc(/C=C2/C(=O)NC(=O)N(c3ccccc3)C2=O)cc1CN1C(=O)c2ccccc2C1=O,active: 25.1 µM
18,Cc1c(CC(=O)N2C[C@H]3C[C@@H](C2)c2cccc(=O)n2C3)c(=O)oc2cc(O)c(Cl)cc12,"inconclusive: 25.1 µM [inhibitor, full curve, poor fit]"
19,Cc1ccccc1N1C(=O)NC(=O)/C(=C\c2cnn(-c3ccccc3)c2)C1=O,"inconclusive: 15.8 µM [inhibitor, partial curve]"
20,Cc1ccc(N2C(=O)NC(=O)/C(=C/c3ccc(-c4ccc(C(=O)O)c(Cl)c4)o3)C2=O)cc1,"inconclusive: 15.8 µM [inhibitor, partial curve, poor fit]"
21,C[N+]1(C)CCOC(O)(c2ccc(-c3ccc(C4(O)C[N+](C)(C)CCO4)cc3)cc2)C1 (stereo not given),"inconclusive: 3.77 µM [inhibitor, partial curve, poor fit]"
22,O=[N+]([O-])c1ccc2c(c1)Cc1cc(O)ccc1-2,inactive

row,Structure (SMILES),Potency
1,Cc1oc(-c2ccccc2F)nc1CS(=O)CC(=O)N1CCC2(CC1)OCCO2 (stereo not given),"inconclusive: 39.8 µM [inhibitor, partial curve]"
2,CCCCC(=O)N/N=C/c1c(O)n(CC)c(=S)n(CC)c1=O,"inconclusive: 20 µM [inhibitor, partial curve, poor fit]"
3,CCn1nc(/C=C/c2ccccc2)nc2c(=O)n(C)c(=O)nc1-2,"inconclusive: 25.1 µM [inhibitor, single point]"
4,CC(C)c1ccc(-n2c(O)c(C=NCCN3CCNCC3)c(=O)[nH]c2=S)cc1,inactive
5,CCCCCOc1ccc(C)cc1CN(CCCl)CCCl,"inconclusive: 39.8 µM [inhibitor, single point]"
6,COc1ccc(/C=C2/C(=O)NC(=O)N(c3ccc(C)c(C)c3)C2=O)cc1CN1C(=O)c2ccccc2C1=O,"inconclusive: 14.1 µM [inhibitor, partial curve, poor fit]"
7,CN1CCN(c2ccc(N)cc2Cl)CC1,inactive
8,Cc1cc(OCC(=O)N2CCN(CCc3ccncc3)CC2)ccc1Cl,"inconclusive: 22.4 µM [inhibitor, full curve]"
9,CC(=NCCc1ccccc1)c1c(O)n(C)c(=O)n(C)c1=O,inactive
10,COc1ccc(N2C(=O)/C(=C/c3ccco3)C(=O)NC2=S)cc1,"inconclusive: 12.6 µM [inhibitor, partial curve, poor fit]"
11,CCN1C[C@]2(C)CC[C@H](O)[C@@]34[C@@H]5C[C@@H]6[C@@H](OC)C[C@@](O)(C5[C@H]6O)[C@@H](C[C@@H]23)[C@@H]14,inactive
12,CCOc1ccc(N2C(=O)/C(=C/c3ccco3)C(=O)NC2=S)cc1,"inconclusive: 70.8 µM [inhibitor, single point]"
13,CCn1c(O)c(C=Nc2ccc(S(N)(=O)=O)cc2)c(=O)[nH]c1=S,"inconclusive: 22.4 µM [inhibitor, single point]"
14,C=CCN1C(=O)NC(=O)/C(=C/C=C/c2ccccc2)C1=O,"inconclusive: 22.4 µM [inhibitor, single point]"
15,Cc1cccc(-n2c(O)c(/C=C/C=Nc3ccccc3)c(=O)[nH]c2=O)c1,"inconclusive: 56.2 µM [inhibitor, partial curve]"
16,CC(C)c1ccc(OCC(=O)N2CCN(CCc3ccncc3)CC2)cc1,"inconclusive: 17.8 µM [inhibitor, full curve]"
17,CCn1c(C)c(C(=O)NCCc2ccccc2)c2cc(OC)ccc21,inactive
18,C=C1C(=O)OC2CC3(C)OC3CCC(C)=CC(OC(C)=O)C12 (stereo not given),"inconclusive: 3.16 µM [inhibitor, single point]"
19,Cc1ccsc1C(=O)C1CCCN(Cc2cnc(N3CCOCC3)s2)C1 (stereo not given),inactive
20,O=c1c2ccccc2nc(/C=C/c2ccco2)n1-c1ccccc1O,active: 15.8 µM
21,O=C(/C=C/c1ccccc1)c1c(O)n(CCc2ccccc2)c(=O)[nH]c1=O,"inconclusive: 50.1 µM [inhibitor, partial curve]"
